# The list shows a part of the results. Binding of human antibodies (heavy:light variable regions, tested as scFv in one mRNA-display pool) to influenza hemagglutinin, with or without the stem antibody CR9114 bound first. Score = (mean enrichment − median) / interquartile range of that screen; higher = more enriched, 0 = typical non-binder. Active = above the paper's cut-off per screen: stems 28; unblocked H1 Solomon Islands 5, H1 Michigan 3, H3 5, H5 19, H7 2.85, both B 5; blocked 9, 7, H5 10, H7 10, B Phuket 10, B Lee 11.5. Scores are scaled within each screen and are no affinities; replicates correlate at about 0.6 to 0.9, and antibodies rare in the pool are noisier.
# B1: K77-2E07 (protein)
# chain 1: QVQLVQSGDEVKKPGASMKVSCRSSGFTLTTFYMHWVRQAPGQGLEWVGLIHPNGITTTYAQNFLGRVAMTRDTSTNTVYMDLRSLRSDDTAVYFCARGRAEETWTQRWPPYSLDVWGQGTRVTVSS
# chain 2: EIVLTQSPGTLSLSPGERATLSCRASRSISSSYLAWYQQRPGQAPRLLIYGASSRATGIPDRFSGSGSGTDFTLTISTLEPEDFAVYYCQHYGSSPPVLFGPGTKVDIK
# B2: AG13-3D02 (protein)
# chain 1: VQLVESGGGLVKPGGSLRLSCAASGFTFSDYYMTWIRQAPGKGLEWVSYIDSWSTYTDYPDSVKGRFTVSRDNAKNSLYLQMNSLRAEDTAVYFCARDRGDCSRTTCSFDSWGQGTLVTVSS
# chain 2: DIQMTQSPSSLSASVGDSVNITCRASQNIRRSLHWYQQKSGRAPQLLIFSVSALHGGVPTRFSGSGSGTEFTLTISSLQPEDFATYFCQQSYSRPLTFGPGTKVDIK
# B3: 008-10-1C03 (protein)
# chain 1: EVQLVESGGGLVQPGGSLRLSCEASGFTFSSYWMSWVRQAPGKGLEWVAVMDQDGSDIYYVDSVKGRFTISRDNAKNSLSLQMNSLRAEDTAVYYCARDYWRSGEYWGQGALVTVSS
# chain 2: EIVLTQSPATLSLSPGERATLSCRASQSVSSYLAWYQQRPGQAPRLLIHDASNRATGIPARFSGSGSGTDFTLTISSLEPEDFAVYYCQQGNKWPRTFGQGTKVEIK
# B4: antibody 2E04 (protein)
# chain 1: QVQLQESGPRLVKPSETLSLTCAVSGYSISNYYWGWIRQPPGKGLEWIGSLNHRGNTFYSPSLKSRVTISVDTSKNHFSLKVNSVTAADTAVYYCARGNYYDVDLKLFYFDYWGQGTLVTVSS
# chain 2: DIQMTQSPSSLSASVGDRVTITCRASQNIKTYLNWYQQKPGKAPNLLIYGASSLESGVPSRFSGSGSGTEFTLTISSLQPEDFATYYCQQSYKMFTFGGGTKVEIK
# Biological target: Influenza A H1N1 A/Michigan/45/2015 hemagglutinin ectodomain
# Test: mRNA display binding score; higher = more enriched on the antigen
# Settings: antigen blocked with: 2 µM CR9114 IgG
# Method: (§1)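 A pool of natively paired antibodies, displayed as scFv on mRNA, was selected once on antigen-coated beads and sequenced before and after; two replicates.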
row,Binder,mRNA display binding score
1,B1,inactive: 1.51
2,B2,inactive: -0.296
3,B3,inactive: -0.208
4,B4,active: 117

# Same assay, conditions: antigen blocked with: nothing
row,Binder,mRNA display binding score
1,B1,inactive: 1.98
2,B2,inactive: 0.731
3,B3,inactive: -0.371
4,B4,active: 6.54

# Biological target: Influenza A H1N1 A/Solomon Islands/3/2006 hemagglutinin ectodomain
# Test: as above
# Settings: antigen blocked with: 2 µM CR9114 IgG
# Method: as §1
row,Binder,mRNA display binding score
1,B1,inactive: 1.64
2,B2,inactive: -0.567
3,B3,inactive: -0.421
4,B4,inactive: 1.05

# Same assay, conditions: antigen blocked with: nothing
row,Binder,mRNA display binding score
1,B1,inactive: 1.52
2,B2,inactive: -0.532
3,B3,inactive: -0.24
4,B4,inactive: 0.268

# Biological target: Influenza A H3N2 A/Singapore/INFIMH-16-0019/2016 hemagglutinin ectodomain
# Test: as above
# Settings: antigen blocked with: nothing
# Method: as §1
row,Binder,mRNA display binding score
1,B1,inactive: 1.37
2,B2,inactive: 2.22
3,B3,inactive: -0.421
4,B4,inactive: 0.239

# Biological target: Influenza A H5N1 A/Qinghai/1A/2005 hemagglutinin ectodomain
# Test: as above
# Settings: antigen blocked with: 2 µM CR9114 IgG
# Method: as §1
row,Binder,mRNA display binding score
1,B1,inactive: 2.03
2,B2,inactive: -0.368
3,B3,inactive: -0.602
4,B4,inactive: 0.596

# Same assay, conditions: antigen blocked with: nothing
row,Binder,mRNA display binding score
1,B1,inactive: 3.78
2,B2,inactive: 0.324
3,B3,inactive: -0.269
4,B4,inactive: 0.298

# Biological target: Influenza A H7N9 A/Shanghai/2/2013 hemagglutinin ectodomain
# Test: as above
# Settings: antigen blocked with: 2 µM CR9114 IgG
# Method: as §1
row,Binder,mRNA display binding score
1,B1,inactive: 1.74
2,B2,inactive: -0.0474
3,B3,inactive: -0.0498
4,B4,inactive: 0.0658

# Same assay, conditions: antigen blocked with: nothing
row,Binder,mRNA display binding score
1,B1,active: 3.16
2,B2,inactive: 1.01
3,B3,inactive: -0.325
4,B4,inactive: 0.374

# Biological target: Influenza B/Lee/1940 hemagglutinin ectodomain
# Test: as above
# Settings: antigen blocked with: 2 µM CR9114 IgG
# Method: as §1
row,Binder,mRNA display binding score
1,B1,active: 26.9
2,B2,inactive: 0.191
3,B3,inactive: -0.0386
4,B4,inactive: -0.685

# Same assay, conditions: antigen blocked with: nothing
row,Binder,mRNA display binding score
1,B1,active: 126
2,B2,inactive: 0.379
3,B3,inactive: -0.319
4,B4,inactive: 0.215

# Biological target: Influenza B/Phuket/3073/2013 hemagglutinin ectodomain
# Test: as above
# Settings: antigen blocked with: 2 µM CR9114 IgG
# Method: as §1
row,Binder,mRNA display binding score
1,B1,active: 42.8
2,B2,inactive: -0.022
3,B3,inactive: -0.116
4,B4,inactive: 0.0158

# Same assay, conditions: antigen blocked with: nothing
row,Binder,mRNA display binding score
1,B1,active: 44.4
2,B2,inactive: 0.329
3,B3,inactive: -0.302
4,B4,inactive: -0.127
